Hit rate of the full screen: of about 310,000 compounds, about 14,000 (4.5%) showed an effect of 50% or more. The effect is printed as a negative number. The list shows a part of the results.
Target: human ether-à-go-go-related gene (hERG) potassium channel (human, UniProt Q12809)
Assay: primary screen, population patch clamp on CHO cells stably expressing hERG
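Further: peak tail current of the secondary pulse compared with the same well before compound.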

Sequence of human ether-à-go-go-related gene (hERG) potassium channel (Q12809 whole entry, looked up): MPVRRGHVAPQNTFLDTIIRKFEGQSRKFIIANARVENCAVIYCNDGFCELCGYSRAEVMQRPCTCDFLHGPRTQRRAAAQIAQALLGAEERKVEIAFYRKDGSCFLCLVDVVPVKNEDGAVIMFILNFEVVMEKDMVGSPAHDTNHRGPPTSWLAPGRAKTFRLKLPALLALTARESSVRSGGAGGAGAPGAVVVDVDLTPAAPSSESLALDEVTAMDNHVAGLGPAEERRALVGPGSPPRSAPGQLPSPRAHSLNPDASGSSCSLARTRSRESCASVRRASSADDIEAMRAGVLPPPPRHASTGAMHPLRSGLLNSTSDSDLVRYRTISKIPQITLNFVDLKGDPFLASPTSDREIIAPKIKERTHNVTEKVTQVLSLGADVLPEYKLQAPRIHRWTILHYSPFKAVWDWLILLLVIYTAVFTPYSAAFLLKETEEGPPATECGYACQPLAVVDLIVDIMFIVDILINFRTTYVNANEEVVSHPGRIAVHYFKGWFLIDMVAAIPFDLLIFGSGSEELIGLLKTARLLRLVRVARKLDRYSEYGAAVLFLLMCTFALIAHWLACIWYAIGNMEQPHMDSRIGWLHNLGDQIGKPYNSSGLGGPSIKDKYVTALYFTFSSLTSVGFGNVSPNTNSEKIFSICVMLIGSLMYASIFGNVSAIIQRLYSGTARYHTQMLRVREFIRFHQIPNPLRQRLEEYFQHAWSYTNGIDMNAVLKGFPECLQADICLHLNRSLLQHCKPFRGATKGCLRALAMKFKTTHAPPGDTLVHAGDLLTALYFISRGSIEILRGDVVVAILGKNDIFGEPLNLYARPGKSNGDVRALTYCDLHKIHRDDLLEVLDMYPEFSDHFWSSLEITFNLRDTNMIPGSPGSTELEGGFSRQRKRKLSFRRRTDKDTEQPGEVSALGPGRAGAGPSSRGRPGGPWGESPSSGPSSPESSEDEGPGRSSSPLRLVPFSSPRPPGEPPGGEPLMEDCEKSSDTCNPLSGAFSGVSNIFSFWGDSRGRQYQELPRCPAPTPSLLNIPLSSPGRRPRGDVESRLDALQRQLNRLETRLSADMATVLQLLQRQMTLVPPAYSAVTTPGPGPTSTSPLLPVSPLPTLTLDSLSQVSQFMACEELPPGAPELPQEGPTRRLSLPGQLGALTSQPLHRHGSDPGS

Structure (SMILES) | hERG current change (%, negative = inhibition) at 10uM [%]
Cc1ccc2cc(C#N)c(NCCNC(=S)NCCCN3CCOCC3)nc2c1 | -36.7
O=Cc1cc([N+](=O)[O-])ccc1N1CCOCC1 | -19.3
CCN1CCN(C(=O)c2ccc(Cl)c(S(=O)(=O)N3CCOCC3)c2)CC1 | -0.549
COC(=O)c1c(NC(=O)c2c(-c3ccccc3Cl)noc2C)sc2c1CCC2 | 6.14
CC(C)N(Cc1nccn1C)C(=O)c1cc(COc2cccc(C(F)(F)F)c2)on1 | -21.8
COc1cccc(N2CCN(S(=O)(=O)c3c(C)[nH]c(C)c3C(=O)N3CCCCC3)CC2)c1 | 6.04
O=C(CN1c2cccc3cccc(c23)S1(=O)=O)N1CCN(c2ccc(F)cc2)CC1 | -42.1
Cc1ccc(S(=O)(=O)n2[nH]c(=O)cc2NC(=O)c2cccs2)cc1 | -0.667
Cc1cc(C)n(CCC(=O)N=Nc2c(O)[nH]c3ccccc23)n1 | 5.66
N#CCCN1CCCN(CCC#N)CCN(CCC#N)CCCN(CCC#N)CC1 | 8.67
COc1cccc(NS(=O)(=O)c2ccc(S(=O)(=O)N3CCCC3)cc2)c1 | -1.76
COc1ncnc2c1NC(=O)CS2 | 9.87
Cc1cccc(OCC(=O)Nc2nonc2NC(=O)COc2cccc(C)c2)c1 | 7.84
Cc1ccc(N2C(=O)Nc3cc(Cl)c(Cl)cc3N2O)cc1Cl | 15.9
Cc1ccc(CN2CCN(C3CCCC3)C(CCO)C2)s1 (stereo not shown) | -22.4
Cc1ccc(S(=O)(=O)/N=C(/Nc2ccc(F)cc2F)c2ccc(F)cc2)cc1 | 7.35
Cc1ccc(S(=O)(=O)N2CCOCC2)cc1NC(=O)CSc1ccc(Cl)cc1 | -51.3
CCOc1ccccc1N(CC(=O)NC1CCCCC1)S(=O)(=O)c1ccc(C)cc1 | -7.2
CCN=C1S/C(=C\c2cn(C(C)=O)nc2-c2ccccc2)C(=O)N1CC | 8.23
O=C(CNC(=O)c1ccccc1F)NCCc1ccc(Cl)cc1 | 4.5
CC(C)C(NC(=O)CCNC(=O)c1ccc([N+](=O)[O-])cc1)c1nc2ccccc2[nH]1 (stereo not shown) | 3.16
COc1cc(C(=O)Nc2ccccn2)cc(OC)c1OC | 14.3

Structure (SMILES) | hERG current change (%, negative = inhibition) at 10uM [%]
Cc1ccc(C)c(OCCCCN2CCNCC2)c1C.O=C(O)C(=O)O | 4.42
COc1ccccc1NC(=O)C1CCCN1C(=O)NC1CCCCC1 (stereo not shown) | 0.823
CCCCSc1nc2ccccc2n1CC(=O)O | 9.82
O=C(CSC1=NCCS1)NCc1ccco1 | 19.8
CC1=C(C)C(=O)C(CCCCC#CCCCC#CCO)=C(C)C1=O | -11.9
Cc1c(Cl)cccc1N1C(=O)c2ccccc2C1=O | 6.05
Cc1cc(NC(=O)CCC(=O)N(Cc2ccco2)C(C(=O)NC2CCCC2)c2ccccc2C)no1 (stereo not shown) | -41.4
O=C(CCSc1ccccc1)NC(=O)COC(=O)C1CCCCC1 | 26.2
COc1ccccc1CN1C[C@@H]2C[C@@H](c3[nH]c4c(C)cccc4c3C)N3CCC[C@@]23C1=O | -26.7
O=C(Nc1ccon1)c1ccc(Br)o1 | 3.85
CCOC(=O)c1[nH]cnc1C(=O)N1CCC(C)CC1 | 23.1
O=C(NCc1ccc2c(c1)OCO2)c1cnc2ccccn2c1=O | -6.29
COc1cc(NC(=O)Cn2nnc(-c3ccncc3)n2)cc(OC)c1 | -0.328
Cc1cc(C)c(C)c(C(=O)COC(=O)CNC(=O)CN2C(=O)c3ccccc3C2=O)c1C | 6.72
CCc1nnc(NC(=O)c2ccc(S(=O)(=O)N3CCCCC3)cc2)s1 | 17.5
COc1ccc(OC)c(C(C)NC(=O)c2ccco2)c1 (stereo not shown) | -8.81
Cn1c(=O)c(=O)n(C)c2cc(S(=O)(=O)N3CCc4ccccc43)ccc21 | -34.2
Cc1ccc(C2=NNC(=O)C(c3ccc(Cl)cc3)C2)cc1 (stereo not shown) | 9.79
CCOC(=O)N1CCN(C(=O)c2sc3nc(-c4ccc(F)cc4)cn3c2C)CC1 | -62.1
COc1cc(/C=C2\C(=O)NC(=O)N(c3ccc(C)cc3)C2=O)cc(OC)c1O | 5.19
O=C(Cn1c(=O)oc2cc(S(=O)(=O)N3CCCC3)ccc21)NCc1ccccn1 | 0.635
CCCCCCCC1CC(/C(C)=N/NC(N)=O)OC1=O (stereo not shown) | -45.3

Structure (SMILES) | hERG current change (%, negative = inhibition) at 10uM [%]
CCOC(=O)C1=NN(c2ccccc2)C(=O)/C1=C\c1ccc(N(C)C)cc1 | 21.1
O=C(O)CCC(=O)Nc1sc2c(c1C(=O)Nc1ccccc1)CCCCC2 | 13.2
Cc1[nH]c2ccccc2c1Cc1nnc(SCC(N)=O)o1 | 7.28
Cc1ccc(N(CC(O)CN2CCOCC2)S(=O)(=O)c2ccc3ccccc3c2)cc1 (stereo not shown) | -67.4
CN(C)S(=O)(=O)c1cc(NC(=O)COC(=O)CCc2ccccc2)ccc1Cl | -9.18
COC(=O)CSc1nc(C(C)C)nc2ccccc12 | -6.41
CCN(CC)CC.COc1ccc(OC)c(-n2c(=S)[nH]c3c(sc(=S)n3-c3ccccc3)c2=O)c1 | 15.1
CN(CC(=O)N1CCN(c2ccccn2)CC1)S(=O)(=O)c1ccc2ccccc2c1 | -25.9
Nn1c(SCC(=O)Nc2ccc(F)c(F)c2)nnc1C1CCCCC1 | 7.76
C=CCn1c(SCC(=O)O)nnc1-c1ccc(C(C)(C)C)cc1 | 12.6
CCN1CCCC1CNC(=O)Cn1cnc2sc(C)c(S(=O)(=O)N3CCC(C)CC3)c2c1=O (stereo not shown) | -14.5
CC1CCCCN1C(=O)c1cc(Cl)ccc1[N+](=O)[O-] (stereo not shown) | 3.93
CC(=O)c1c(C)[nH]c(C(=O)OCC(=O)N2CCN(S(=O)(=O)c3ccc(C)cc3)CC2)c1C | -19.8
Cc1[nH]n2c(=O)c3c(nc2c1-c1cccc2ccccc12)CCC3 | -18.2
CCCCc1c(C)nc(N2CCCC2)[nH]c1=O | -2.53
CSc1cccc(NC(=O)CSc2nnc(C)s2)c1 | -17.4
CN1CCCC(OC(=O)c2ccc(Cl)cc2)C1.Cl (stereo not shown) | -5.81
O=C(CSc1nc2ccccc2c(=O)n1-c1ccccc1F)Nc1ccc2c(c1)CCC2 | 9.61
COc1ccc(NS(=O)(=O)c2ccc3oc(SC(C)C(N)=O)nc3c2)cc1 (stereo not shown) | 8.02
O=C(CN(C(=O)Cn1nnc(-c2ccc(F)cc2)n1)c1ccc(F)cc1)NC1CCCC1 | -16.4
Cc1ccc(CC(=O)N2CCN(C(=O)c3ccco3)CC2)cc1 | -7.76
CCCCCC(O)(c1ccccc1)C(CN1CCOCC1)c1ccccc1.Cl (stereo not shown) | -11.3

Structure (SMILES) | hERG current change (%, negative = inhibition) at 10uM [%]
Cc1ccc(-c2csc(NC(CO)c3nc4ccccc4n3CCOCCO)n2)cc1 (stereo not shown) | -47.3
Cc1ccc(CNC(=O)C2CCCN2S(=O)(=O)c2ccc3c(c2)C(C)(C)C(=O)N3C)cc1 (stereo not shown) | 0.556
O=C(CCS(=O)(=O)c1ccccc1)N1CCN(c2ccccc2F)CC1 | -3.39
O=C(NC1CCCC1)c1cc(-c2ccc(Cl)cc2Cl)on1 | 7.16
CC(=O)Nc1cccc(Oc2ccc3c(c2)C(=O)NC3=O)c1 | 10.1
O=C(Nc1ccccc1N1CCOCC1)C1CCN(S(=O)(=O)c2ccc(Cl)cc2)CC1 | -34.8
Cn1c(=O)cc(OCCCC(=O)NCc2cccnc2)c2ccccc21 | 2.77
COc1cccc(N2CCN(S(=O)(=O)c3ccc4c(c3)NC(=O)C(C)C(=O)N4)CC2)c1 (stereo not shown) | -4.46
CCC1(C)Cc2c(sc3nc(SC)nc(NCCN(C)C)c23)CO1 (stereo not shown) | -42.9
Cc1ccc(-n2ncc3c(N4CCN(c5ccccc5)CC4)ncnc32)c(C)c1 | -2
CCCCCCCOC(=O)c1nc(Cl)c(Cl)c(N)c1Cl | -4.56
COc1ccc2c(C)cc(SCC(=O)N3CCOCC3)nc2c1 | -5.29
CCN(CC(=O)Nc1cc(Cl)ccc1-n1cncn1)Cc1nc2ccccc2c(=O)[nH]1 | -60.3
COc1ccccc1N(CC(=O)N(c1ccccc1)C(C)C)S(=O)(=O)c1cccs1 | -22.8
Br.Cc1ccc(Cn2c(=N)n(CC(=O)c3ccccc3)c3ccccc32)cc1 | -72.2
COc1cc(C(C)=O)ccc1OCC(=O)N1CCc2ccccc2C1 | -9.57
COc1cccc(OC)c1CC1SC(=O)NC1=O (stereo not shown) | -1.06
CC(CCc1ccccc1)NC(=O)CNC(=O)COc1ccccc1 (stereo not shown) | -0.873
O=C(Nc1c(F)cc(F)cc1Br)c1cc2nc(C(F)F)cc(C(F)F)n2n1 | -1.51
O=C(COC(=O)c1ccccc1SCC(=O)N1CCCC1)Nc1ccccc1OC(F)F | -24.6
Br.Brc1ccc(-c2csc(NNC3=NCCCCC3)n2)cc1 | 0.146
Cc1ccc(Sc2c(C)nn(C(=O)c3cccc(S(=O)(=O)N4CCOCC4)c3)c2C)cc1 | -6.3
